Measured values taken from PubChem BioAssay AID1347416 (National Center for Advancing Translational Sciences (NCATS), 2020).
The whole screen tested about 4,100 compounds, of which about 1,600 (39%) were called active. Inconclusive results, whose numbers are uncertain, are shown with a selection of clear calls. Calls follow the shape of the dose curve; as a rule, active = well fitted inhibition curve with a large enough effect; inconclusive = small, poorly fitted or top-dose-only effect; inactive = no such curve, though single readings can be large or run the other way. Where the call is inconclusive, the potency comes from a doubtful curve fit.

Assay: qHTS Validation assay for Inhibitors of Plasmodium falciparum Dd2 growth in vitro; also: nearly all actives have a fitted effect of over 70% in size
Settings: P. falciparum Dd2 in RBCs, SYBR Green growth, 72 h; activity change, negative = inhibition: at 28.7 µM (top of the series) unless noted
Procedure, shortened: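 P. falciparum Dd2-infected red blood cells (2.5% hematocrit, 0.3% parasitemia) grown 72 h at 37 °C under 5% O2 with compounds in a titration, 29 uM to 0.5 nM final. Growth read as SYBR Green-1 fluorescence after ~16 h lysis; artesunate 300 nM as positive control.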
% is scaled to controls: 0 for no effect and ±100 for the full control effect; potency is read from the fitted curve at half-maximal effect; tags tell the direction and shape of the fitted curve.

Potency, active:
COc1ccc(OCCn2cc(C(=O)c3ccco3)c3ccccc32)cc1 2.11 µM, Cc1nn2c(c1-c1ccccc1-c1ccccc1)N(CCC(C)C)CCC2 0.243 µM, CCCN1CCN(CCCNC(=O)c2ccc3c(c2)sc2nc(-c4ccc(OCC)cc4)cn23)CC1 4.22 µM, COc1ccc(NC(=O)c2c(C)oc3ccc(O)c(CN4CCCC(C)C4)c23)cc1Cl (centres undefined) 0.944 µM, COc1cc(C2CC(=O)N(Cc3ccc(F)cc3)c3ccccc3S2)cc(OC)c1OC (centres undefined) 2.11 µM, CC1CCCCN1S(=O)(=O)c1ccc(C(=O)Nc2ccccc2-c2nc3ccccc3[nH]2)cc1 (centres undefined) 7.5 µM, Nc1cc[n+](CC(=O)c2ccc3c(c2)OCCO3)cc1 13.3 µM, CCN(C(=O)Cn1c(=O)n(Cc2ccc3c(c2)OCO3)c(=O)c2ccc(C(=O)NC3CCCCC3)cc21)c1cccc(C)c1 6.68 µM, Cc1ccc(CN2CCCN(Cc3ccncc3)C(c3ccccc3)CC(=O)NCC2)s1 (centres undefined) 2.66 µM, CCOC(=O)c1c(CN(CC)CC)n(C)c2cc(Br)c(O)cc12 9.44 µM, CCOc1ccc(CCNC(=O)Nc2ccccc2)cc1OCC 5.31 µM

Potency, inconclusive:
CCc1nc2c(c(-c3ccc(Cl)cc3)n1)CCN(Cc1cccnc1)CC2 21.1 µM [inhibitor, single point], COc1ccc(NC(=O)c2ccc3c(c2)C2(CCCN(C)C2)CN3Cc2cccnc2)cc1 (centres undefined) 21.1 µM [inhibitor, single point], CC(C)Nc1ccc(Nc2ccnc3cc4ccccc4cc23)cc1 0.531 µM [inhibitor, full curve, poor fit], O=c1c2c([nH]c3ccccc13)CCCCC2 13.3 µM [inhibitor, single point], Nc1nc(Nc2ccccc2)nc2ccccc12 16.8 µM [inhibitor, single point], CCOC(=O)c1cc(-c2ccc(F)cc2)n(CCC(=O)NC2CCCCC2)c1C 16.8 µM [inhibitor, single point], COc1ccc(-c2cc3c(=O)n(CCNC(=O)c4ccccc4C)ccn3n2)cc1 15 µM [inhibitor, single point], Cc1cccc(-c2cc(C(=O)Nc3ccncc3)c3ccccc3n2)c1 8.41 µM [inhibitor, partial curve], C=CCNc1nc(N(c2ccccc2)c2ccccc2)nc(-n2ccnc2)n1 7.5 µM [inhibitor, single point], CC(C)NC(=O)c1ccc(CSCc2ccccc2Cl)o1 9.44 µM [inhibitor, single point], O=C(NC1CC1)c1ccc(CSCc2ccccc2Cl)o1 6.68 µM [inhibitor, full curve, poor fit], Cc1cnc(CCNC(=O)C2CCOCC2)n1C1CCCCCCC1 13.3 µM [inhibitor, single point], CCOC(=O)c1ccc2[nH]cc(C(C)=O)c(=O)c2c1 18.8 µM [inhibitor, single point], O=C1CCN(C(=O)CCC2CCCC2)CCCC(c2nc(-c3cccnc3)no2)CCN1 (centres undefined) 21.1 µM [inhibitor, single point], Cc1ccc(NC(=O)c2c(C)oc3ncn(CC(C)C)c(=O)c23)nc1 16.8 µM [inhibitor, single point], CCCOC(=O)c1[nH]c2c(c1C)C(=O)CC(c1cc(OC)c(OC)c(OC)c1)C2 (centres undefined) 6.68 µM [inhibitor, full curve], CN1CCCN(C(=O)CCC[C@@H]2[C@H]3CCCN4CCC[C@@H](CN2Cc2ccccc2)[C@@H]34)CC1 21.1 µM [inhibitor, single point], O=C(CSc1nc2ccccc2c(=O)n1CCCN1CCOCC1)Nc1cccc(S(=O)(=O)N2CCCCCC2)c1 21.1 µM [inhibitor, single point], c1cncc(-c2nc(N3CCCCCC3)c3ccccc3n2)c1 15 µM [inhibitor, single point], O=C(Nc1cccnc1)c1cn(-c2ccccc2)nc1-c1cccs1 2.37 µM [inhibitor, full curve], COc1ccccc1NS(=O)(=O)c1cc(NC(=O)c2ccc(Cl)nc2)ccc1Cl 15 µM [inhibitor, partial curve, poor fit], Cc1cc(C)n(-c2nc(SCCN(C)C)c3c4c(sc3n2)COC(C)(C)C4)n1 21.1 µM [inhibitor, single point], Cc1ccccc1SCC(=O)Nc1cc(C(F)(F)F)ccc1N1CCOCC1 16.8 µM [inhibitor, single point], Clc1ccccc1C1Cn2nnc(-c3noc(-c4cc(C5CC5)[nH]n4)n3)c2CO1 (centres undefined) 21.1 µM [inhibitor, single point], COc1ccc(S(=O)(=O)NCc2ccccn2)cc1Br 21.1 µM [inhibitor, single point], O=C(Cc1ccccn1)N1CCC2(CC1)CCN(Cc1cccs1)c1ccccc1O2 15 µM [inhibitor, single point]

Activity change, negative = inhibition, inactive:
CCCC(=O)NCCc1noc(-c2ccccc2)n1 30.7%, COc1ccc(-n2nc3n(c2=O)CCN(C(=O)c2ccc(Cl)cc2)C3)cc1 -20.5%, O=C(NC[C@H]1O[C@@H](CO)[C@@H](O)[C@H]1N1CCN(c2cccc(C(F)(F)F)c2)CC1)c1cccs1 -4.61%, Cc1ccc(C)c(OC(=O)CSc2nnc(-c3cccs3)o2)c1 13%, CC(C)c1noc(-c2cccn3c(CNC(=O)c4cc(F)ccc4Cl)nnc23)n1 5.47%, O=C(NCc1ccc(C(F)(F)F)cc1F)[C@H]1CCC[C@@H](O)C1 21.3%, CCN(C(=O)Cn1nc2c3cc(F)ccc3n(Cc3cccc(C)c3)cc-2c1=O)c1cccc(C)c1 43.5%
